Measured values from PubChem BioAssay AID686970 (National Center for Advancing Translational Sciences (NCATS), 2013).
Several values for one entry are separate records, joined by “and”; a condition that tells them apart may be missing. Equal entries are not always repeated. About 6,000 (1.7%) of roughly 360,000 compounds were called active. The shares of active, inactive and inconclusive entries below differ from those in the screen. Calls come from the whole dose curve; as a rule, active = well fitted cell-killing curve with a large enough effect; inconclusive = small, poorly fitted or top-dose-only effect, or effect the other way; inactive = flat fitted curve, though single readings scatter. Potencies beside an inconclusive call are fits to weak or partial responses and may not hold up.

test: qHTS for induction of synthetic lethality in tumor cells producing 2HG: qHTS for the HT-1080-NT fibrosarcoma cell line; conditions: HT-1080-NT fibrosarcoma viability, CellTiter-Glo ATP luminescence, 48 h; activity, negative = less viability: at 46.1 µM (top of the series) unless noted;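 note: NT is the 2HG producing partner of a matched IDH1 knockdown line; nearly all actives have a fitted effect of over 55% in size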;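 for activity, negative = less viability: 0% = DMSO-treated cells and -100% = media-only wells without cells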
Method in brief: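 Fibrosarcoma NT cells, 750 per well in 5% FBS RPMI, were exposed to compound for 48 hours. Viability: CellTiter-Glo luminescence.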
Potency is the fitted concentration of half-maximal effect; tags give direction and shape of the fitted curve.

Row | SMILES | Potency | activity, negative = less viability
1 | COC(=O)c1ccc(C)c(NS(=O)(=O)c2ccc(OC)c(OC)c2)c1 | inconclusive: 0.58 µM [cytotoxic, partial curve, poor fit] | –
2 | C/C(=N/NS(=O)(=O)c1ccc(C)cc1)c1cccc(NC(=O)c2cccc(Cl)c2)c1 | inconclusive: 29.1 µM [cytotoxic, single point] | –
3 | CC1(C)CC(=O)C=C(NCCO)C1 | – | inactive: 6.99%
4 | C/[N+]([O-])=C\c1cccc(OCCN2CCN(c3ncc(C(F)(F)F)cc3Cl)CC2)c1 | – | inactive: -29.8%
5 | CSCc1cc(N(C)C)nc(SCc2ccc(Cl)c(Cl)c2)n1 | inconclusive: 15.8 µM [cytotoxic, single point] | –
6 | FC(F)(F)c1cccc(NC(=S)N(CCCN2CCCC2)Cc2cccn2Cc2ccc(Cl)cc2)c1 | inconclusive: 29.1 µM [cytotoxic, single point] | –
7 | O=C(Nc1ccc[n+](CC(=O)c2cccc3ccccc23)c1)c1ccccc1 | inconclusive: 23.1 µM [cytotoxic, partial curve] | –
8 | O=C(N/N=C/c1cccc(Oc2ccccc2)c1)c1ccccc1Br | inconclusive: 15.8 µM [cytotoxic, single point] | –
9 | COc1ccc(CCn2c(C3CCCCC3)nc3c(c(=O)c4ccccc4n3C)c2=O)cc1 | inconclusive: 29.1 µM [cytotoxic, single point] | –
10 | CCOCC(=O)N1CCN(c2ccccc2OC)CC1 | – | inactive: 11%
11 | Cc1nc2c(Br)c(C)nn2c2c1CCC2 | – | inactive: 0.221%
12 | O=C(Cn1ccc(NC(=O)OCc2ccccc2)nc1=O)NCc1ccc2c(c1)OCO2 | – | inactive: 0%
13 | COC(=O)COc1cccc(NC(=O)c2cccc(C)c2)c1 | – | inactive: -1.69%
14 | CCOc1ccc(C(=O)NC2CCN(CC(=O)NCc3ccccc3)CC2)cc1 | inconclusive: 20.6 µM [rising, partial curve, poor fit] | –
15 | COc1ccc(CCN2C(=O)NC(NS(=O)(=O)c3ccc(N)cc3)(C(F)(F)F)C2=O)cc1OC (stereo unspecified) | – | inactive: 16.1%
16 | COc1ccc2c(c1)-c1nc(NC(=O)c3cccs3)sc1CC2 | inconclusive: 29.1 µM [cytotoxic, single point] | –
17 | O=C(COc1ncnc2c1cnn2-c1ccccc1)Nc1ccc(S(=O)(=O)N2CCCCC2)cc1 | – | inactive: -18.2%
18 | O=C1c2cccnc2C(=O)N1Cc1ccc(S(=O)(=O)N2CCOc3ccc(Cl)cc32)cc1 | – | inactive: -1.13%
19 | O=C(Nc1ccccc1)Nc1nnc(CSCc2ccccc2Cl)s1 | inconclusive: 18.4 µM [cytotoxic, partial curve] | –
20 | O=C(NC1CCCC1)C(c1cccnc1)N(C(=O)c1ccco1)c1ccc(F)cc1 (stereo unspecified) | – | inactive: 2.48%
21 | CCC/C(C(=O)NCCO)=C1/c2ccccc2C(=O)N1c1ccccc1 | – | inconclusive: 28.2%
22 | O=C(N/N=C/C=C\c1ccco1)c1ccccn1 | inconclusive: 29.1 µM [cytotoxic, single point] | –
23 | CC1=C(C(=O)Nc2cc(C(=O)NCc3ccccc3)ccc2C)SCCO1 | inconclusive: 25.9 µM [cytotoxic, single point] | –

Row | SMILES | Potency | activity, negative = less viability
24 | CCOc1ccc(-c2cc(C(=O)NCc3ccc(C(F)(F)F)cc3)[nH]n2)c(C)c1 | inconclusive: 6.51 µM [cytotoxic, single point] | –
25 | Cc1cc2ccccc2nc1-c1ccccc1F | – | inactive: 10.9%
26 | CC(=O)N1N=C(c2cccc(NS(C)(=O)=O)c2)CC1c1cccs1 (stereo unspecified) | – | inactive: 4.02%
27 | COc1ccc(NC(=O)CCN2C(=O)c3ccncc3C2=O)cc1OC | inconclusive: 23.1 µM [rising, single point] | –
28 | O=C(Nc1cccc(Cl)c1)Nc1nnc(CSCCOc2ccc(Cl)cc2)s1 | active: 16.4 µM | –
29 | N=c1c2c(-c3ccccc3)c(-c3ccccc3)n(Cc3ccco3)c2ncn1CCCN1CCOCC1 | inconclusive: 23.1 µM [cytotoxic, single point] | –
30 | CCCOc1ccccc1C1CC(=O)NC2=C1C(=O)CCC2 (stereo unspecified) | active: 11.6 µM | –
31 | Cc1occc1-c1nnc(SCC(=O)NCc2cccs2)n1-c1ccc(F)cc1 | inconclusive: 29.1 µM [cytotoxic, single point] | –
32 | CCN(C(=O)COC(=O)c1ccc(=O)n(Cc2ccccc2)n1)C1CCCCC1 | – | inactive: 6.89%
33 | CCOc1cc(N2CCOCC2)c(OCC)cc1NC(=O)CCS(=O)(=O)c1ccc(Cl)cc1 | – | inactive: 0.932%
34 | O=C(NCCO)c1ccc(Oc2ccc(C(F)(F)F)cc2[N+](=O)[O-])cc1 | – | inconclusive: 12.3%
35 | CCOc1ccc(-c2noc(CCC(=O)NCCc3ccccc3)n2)cc1OC | inconclusive: 29.1 µM [cytotoxic, single point] | –
36 | CC1CC(C)C(=O)C(C(CC2CC(=O)NC(=O)C2)OC(=O)CC(=O)c2ccccc2)C1 (stereo unspecified) | inconclusive: 4.61 µM [cytotoxic, full curve, poor fit] | –
37 | Cc1nn(CCc2nn[nH]n2)c2nc(-c3ccc(C4CCCCC4)cc3)cc(C(F)(F)F)c12 | active: 23.1 µM | –
38 | COc1ccc(-c2csc(C(C)(O)c3ccc(F)c(F)c3)n2)cc1 (stereo unspecified) | inconclusive: 29.1 µM [cytotoxic, single point] | –
39 | COc1ccc(OCc2n(CC(=O)OC3CC(C)CCC3C(C)C)c3ccccc3[n+]2C)cc1 (stereo unspecified) | active: 5.8 µM | –
40 | Cc1cc(C(=O)COC(=O)c2ccc(NC(=O)CC#N)cc2)c(C)n1CC(F)(F)F | – | inactive: -2.28%
41 | COCCCC/C(=N\OCCN)c1ccc(C(F)(F)F)cc1 | inconclusive: 18.4 µM [cytotoxic, partial curve] and inconclusive: 16.4 µM [cytotoxic, single point] and inconclusive: 29.1 µM [cytotoxic, single point] | –
42 | C[C@]12CCC(=O)C=C1CC[C@@H]1[C@@H]2C(=O)C[C@@]2(C)[C@H]1CC[C@]2(O)C(=O)CO | – | inconclusive: 21.4%
43 | COc1ccc(C(CNC(=O)c2cccc(NS(=O)(=O)c3ccc(C)c(F)c3)c2)N2CCCC2)cc1 (stereo unspecified) | inconclusive: 18.4 µM [cytotoxic, partial curve] | –
44 | O=C(Nc1ccc2nn(-c3ccccc3)nc2c1)c1ccc2c(c1)OCCO2 | – | inactive: -24.7%
45 | COc1ccc(N2CCN(C(=S)NC(C)c3ccccc3)CC2)cc1 (stereo unspecified) | – | inactive: 2.29%
46 | COc1ccc2nc(Sc3c([N+](=O)[O-])nc(C)n3Cc3ccccc3)[nH]c2c1 | inconclusive: 29.1 µM [cytotoxic, single point] | –
